Source: PubChem BioAssay AID1745853 (National Center for Advancing Translational Sciences (NCATS), 2022)
This is one part of the list. The main result of the screen is listed elsewhere. These columns were measured beside it and carry no call.

What was measured:
Experiment in all cases: Primary Screen for Target Class Profiling of Small Molecule Inhibitors of Methyltransferases
[1] = biological target: Glycine N-methyltransferase (Homo sapiens) (UniProt Q14749); details: purified enzyme, MTase-Glo SAH luminescence; measured here: GNMT inhibition; at 40 µM; stronger effect = lower value
Procedure, shortened: (§1)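 Each enzyme was assayed with SAM and its substrate. SAH formation detected by MTase-Glo luminescence; single-point 40 uM screen[…].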

[2] = biological target: Guanidinoacetate N-methyltransferase (Homo sapiens) (UniProt Q14353); details: purified enzyme, MTase-Glo SAH luminescence; measured here: GAMT inhibition; at 40 µM; stronger effect = lower value
Procedure, shortened: as §1

[3] = biological target: Histamine N-methyltransferase (Homo sapiens) (UniProt P50135); details: purified enzyme, MTase-Glo SAH luminescence; measured here: HNMT inhibition; at 40 µM; stronger effect = lower value
Procedure, shortened: as §1

[4] = biological target: Nicotinamide N-methyltransferase (Homo sapiens) (UniProt P40261); details: purified enzyme, MTase-Glo SAH luminescence; measured here: NNMT inhibition; at 40 µM; stronger effect = lower value
Procedure, shortened: as §1

[5] = biological target: Phenylethanolamine N-methyltransferase (Homo sapiens) (UniProt P11086); details: purified enzyme, MTase-Glo SAH luminescence; measured here: PNMT inhibition; at 40 µM; stronger effect = lower value
Procedure, shortened: as §1
On the % scale 0 is the no-effect control and ±100 the full control effect.

Compound | activity change, negative = inhibition [1] | activity change, negative = inhibition [2] | activity change, negative = inhibition [3] | activity change, negative = inhibition [4] | activity change, negative = inhibition [5]
Nc1nc(O)c(C2=C3C(=Nc4ccccc43)C(=O)NCC2)[nH]1 | 3.52% | 6.49% | 11.4% | -10.6% | 7.17%
O=C(NCc1ccncc1)c1ccc2c(=O)nc3c(-c4cccc(F)c4)n[nH]n3c2c1 | -18.3% | 1.82% | -2.45% | -4.8% | -2.6%
COc1ccccc1CN1C(=O)c2cc3ccccc3n2CC1(C)C(=O)NC1CCCCCC1 (stereo not drawn) | 4.32% | 0% | 1.72% | 3.38% | -1.41%
COc1ccc(-c2nnc3n(Cc4ccccc4)c(=O)c4ccccc4n23)c(OC)c1 | -7.75% | 3.18% | -0.04% | -9.03% | -2.01%
CCc1cc2c(cc3n2CC(C)(C(=O)NC2CCCCCC2)N(CCCN2CCCC2)C3=O)s1 (stereo not drawn) | -2.97% | 4.63% | -4.1% | -15.2% | -1.12%
CN1C(C(=O)Nc2ccccn2)=C(O)c2ccccc2S1(=O)=O | -6.23% | 13.4% | 6.22% | -3.14% | 4.42%
COC(=O)[C@H](NC(=O)[C@@H]1C[C@H](NC(=O)Nc2ccc(OC)cc2)CN1C(=O)CSC)C(C)C | -3.42% | -4.05% | -0.545% | -10.6% | -3.96%
CCCN1C(=O)c2c(C(=O)NCc3ccc(F)cc3)ncn2CC1(C)C(=O)NCCC(C)C (stereo not drawn) | -2.05% | 0.738% | -2.42% | -5.35% | 1.79%
COCCOC(=O)C1=C(C)NC(C)=C(C(=O)OC(C)C)C1c1cccc([N+](=O)[O-])c1 (stereo not drawn) | -10% | 9.35% | 5.25% | -16.3% | -4.45%
NCCS | 2.91% | 14.4% | -0.25% | -1.25% | 5.31%
COc1ccc(NC(=O)c2ccc3c(c2)n(C)c(=O)c2ccnn23)cc1OC | -32.1% | -8.63% | -4.42% | -16% | -12.2%
Cc1nc(NC(=O)N2CCCC2C(N)=O)sc1-c1csc(C(C)(C)C)n1 (stereo not drawn) | -3.58% | -0.715% | -0.144% | -16.2% | -1.89%
Cc1nn(-c2ccccc2)c2c1C(C)N(C1CCN([S+](=O)([O-])c3c(C)noc3C)C1)C2=O (stereo not drawn) | -8.72% | -7.62% | -12% | -22.2% | -16.4%
Cc1ccccc1N1C(=O)c2cc3ccccc3n2CC1(C)C(=O)NC1CCCC1 (stereo not drawn) | -4.75% | 0% | 0.726% | 1.7% | -0.345%
COc1ccc2c(c1)OCC(C(=O)NCc1noc(-c3ccco3)n1)C2 (stereo not drawn) | -3.52% | 0.434% | 0.89% | -3.98% | -13%
O=[S+]1([O-])NC2(CCCN(Cc3c(F)cccc3Cl)C2)COc2ccccc21 (stereo not drawn) | -73.9% | -7.35% | -3.48% | -10.5% | 0.776%
COC[C@@H]1CNC[C@H]1c1ccccn1 | -2.37% | -4.08% | 0.706% | -0.822% | 1.41%
CC(C)(C)c1cnc([C@@H]2COCCN2C2CCCCC2)[nH]1 | -6.8% | -10% | -24.8% | -23.9% | -11.4%
COc1ccc(CNC(=O)c2ccc3c(=O)nc4c(-c5ccc(C)cc5)n[nH]n4c3c2)cc1 | -21.6% | -3.29% | -9.25% | -14.6% | -10.3%
COc1cccc(C(=O)NC2CCCN(c3ccc4nnc(C5CC5)n4n3)C2)c1 (stereo not drawn) | -9.01% | -4.18% | -6.99% | -24.1% | -7.21%

Compound | activity change, negative = inhibition [1] | activity change, negative = inhibition [2] | activity change, negative = inhibition [3] | activity change, negative = inhibition [4] | activity change, negative = inhibition [5]
COc1ccc(-c2n[nH]n3c2nc(=O)c2ccc(C(=O)NCc4ccccc4)cc23)cc1 | -12.9% | 2.45% | 3.04% | 4.96% | -2.24%
O=C1CC2(CCN(C(=O)C3CCCN3C(=O)c3ccc(Cl)nc3)CC2)Oc2ccccc2N1 (stereo not drawn) | -4.02% | -3.01% | -1.62% | -5.08% | -1.67%
COc1cc(Cc2cnc(N)nc2N)c(C(C)C)cc1OC | 1.88% | 2.82% | 9.19% | -12.5% | 7.38%
O=C1c2cc3occc3n2CC(C(=O)NC2CCCCCC2)(c2ccccc2)N1Cc1ccc(F)cc1 (stereo not drawn) | -5.95% | 0% | -3.39% | -10.1% | -9.79%
CCCCc1nc2c3ccccc3n(CC(=O)N3CCN(c4ccccc4OC)CC3)c(=O)n2n1 | 13.6% | 0.161% | 11.4% | 2.8% | 7.51%
Nc1ncnc2c([C@@H]3N[C@H](CO)[C@@H](O)[C@H]3O)c[nH]c12 | 0.25% | 0.781% | 6.14% | -11.2% | -4.3%
CC1(C(=O)NC2CCCCCCC2)Cc2ccccc2C(=O)N1C1CCCCC1 (stereo not drawn) | -5.85% | 4.12% | 2.79% | 4.45% | -3.81%
Cc1ccc(-c2nc(C3CC(=O)N(c4ccc(F)c(Cl)c4)C3)no2)cc1C (stereo not drawn) | -3.38% | -3.73% | -6.75% | -9.97% | -3.88%
CC(C)NC(=O)c1ccc2c(=O)n(C(C)C)c3nn(Cc4cccc(Cl)c4)c(=O)n3c2c1 | 0.524% | 1.02% | 6.84% | -1.18% | 5.54%
CCCC1c2cccn2CCN1C(=O)NC1CCCCC1 (stereo not drawn) | -3.12% | 1.4% | -3.82% | 6.63% | 2.63%
O=C(c1ccco1)N1Cc2[nH]cnc2C[C@H]1c1nc(-c2ccncc2)no1 | -19.4% | -12.9% | -7.23% | -21.6% | -16.8%
COc1cccc(COC2CN(CC(C)C)C(=O)CN(C(=O)c3csc(C(C)=O)c3)C2)c1 (stereo not drawn) | -0.603% | 1.77% | -1.05% | -1.67% | -2.41%
O=C1NCCCCCCN(C(=O)c2ccccn2)[C@H]2CCCC[C@@H]12 | -1.45% | -1.22% | -0.996% | 1.9% | 0.158%
CCN(CC)CCNC(=O)c1ccc2nc(-c3ccccc3)c(-c3ccc(CN4CCC(n5c(=O)[nH]c6ccccc65)CC4)cc3)nc2c1 | -17.2% | 16% | -29.9% | -47.6% | -1.38%
Cc1noc2c(N3CCOCC3)cc(-c3cccnc3)nc12 | -4.28% | 0.237% | -0.914% | -17.8% | 1.21%
N#Cc1ccc(CN2CCCC3(Cc4ccccc4NC3=O)C2)cc1 (stereo not drawn) | -8.32% | -6.47% | -6.71% | -15.8% | -2.78%
COc1ccccc1-c1nnc2n(CCc3ccccc3)c(=O)c3ccccc3n12 | -3.27% | 0% | -1% | -3.67% | -1.68%
c1ccc(-c2ccnc3nc(CCC4CCCC4)nn23)nc1 | -17.2% | -8.66% | -8.1% | -37% | -20.4%
CCOC(=O)CCC(=O)O[C@H]1[C@H](O[C@@H]2[C@@H](C)[C@H](O[C@H]3C[C@@](C)(OC)[C@@H](O)[C@H](C)O3)[C@@H](C)C(=O)O[C@H](CC)[C@@](C)(O)[C@H](O)[C@@H](C)C(=O)[C@H](C)CC2(C)O)O[C@H](C)C[C@@H]1N(C)C (stereo partly drawn) | 7.11% | 7.64% | 5.72% | -9.7% | 3.98%
Cc1ccc(C)c(N2CCN(C(=O)CCc3nnc4n(CCc5ccccc5)c(=O)c5ccccc5n34)CC2)c1 | -1.83% | 1.21% | -8.01% | -11.4% | -2.99%

Compound | activity change, negative = inhibition [1] | activity change, negative = inhibition [2] | activity change, negative = inhibition [3] | activity change, negative = inhibition [4] | activity change, negative = inhibition [5]
CCCCCC(=O)N[C@H]1C[C@@H](Cc2cc(CN3CCOCC3)on2)C1(C)C | -5.31% | -11.5% | -3.22% | -7.29% | -6.74%
CC(Oc1cc(-n2cnc3ccc(CN4CCN(C)CC4)cc32)sc1C(N)=O)c1ccccc1C(F)(F)F (stereo not drawn) | -33.3% | -8.21% | -52.7% | -41.2% | -41%
N#CCc1ccc(O)cc1O[C@@H]1O[C@H](CO)[C@@H](O)[C@H](O)[C@H]1O | 0.191% | 3.28% | 7.46% | -8.36% | -4.43%
Cc1cc(C)n(Cc2cc(C(=O)N(C)C(C)c3ccon3)n[nH]2)n1 (stereo not drawn) | 0.384% | 2.21% | 0.751% | -2.42% | 0.149%
CC1(C(=O)NC2CCCCCC2)Cn2c(cc3occc32)C(=O)N1Cc1ccccc1Cl (stereo not drawn) | -0.263% | 4.57% | 3.26% | 2.93% | -2.56%
CCOc1cc(=O)n2c(c1C(=O)NC1CCCC1)CCCCC2 | -4.42% | -6.13% | -2.92% | -12.8% | -7.13%
COc1cccc(CNc2nc3c(-c4ccc(C)cc4)nnn3c3ccccc23)c1 | -0.16% | 0% | 4.87% | -6.69% | -0.811%
O=C(Cn1nc2nc(Nc3ccc(F)cc3)ccn2c1=O)Nc1ccc2c(c1)OCCO2 | -0.415% | 0% | 9.36% | -7.47% | -1.9%
CCCn1c(=O)c2ccc(C(=O)NC(C)C)cc2n2c(SCC(=O)Nc3ccccc3C)nnc12 | 2.09% | 0% | 5.51% | -1.06% | 1.03%
Cc1ccc(NC(=O)CSc2nnc3n(CCCOC(C)C)c(=O)c4ccccc4n23)c(Cl)c1 | -11.4% | 0% | -2.12% | -13.8% | 0.353%
CCOc1ccc(CN2C(=O)c3cc4sccc4n3CC2(C)C(=O)NC2CCCCCCC2)cc1 (stereo not drawn) | 1.87% | 0% | 4.67% | -2.74% | 1.39%
O=C(CCc1nnc2n(Cc3ccccc3Cl)c(=O)c3ccccc3n12)Nc1ccc(F)c(F)c1 | -4.23% | 0.09% | 6.41% | -12.8% | -2.28%
CC1(C)CC=C(c2cnc3ccccc3c2)c2cc(C(=O)Nc3ccc(C(=O)O)cc3)ccc21 | -23.4% | 6.52% | 5.29% | 20.5% | 0.448%
COCCc1noc(-c2ccc(N(C)Cc3ncc(C)[nH]3)nc2)n1 | -7.46% | -3.79% | -8.78% | -6.9% | -1.22%
CC1CCc2c(cc(Br)c(F)c2Br)N1C=O (stereo not drawn) | – | -3.67% | – | -8.37% | 2.82%
CC1=C(CCC(C)O[C@@H]2O[C@H](CO)[C@@H](O)[C@H](O)[C@H]2O)C(C)(C)CC(O)C1 (stereo partly drawn) | -2.2% | 2.17% | 5.31% | -10.8% | -3.91%
COC(=O)[C@@H](N)Cc1ccc(O)c(O)c1 | -8.64% | 13.3% | 4.16% | -2.01% | 7.44%
CN(C)CCOc1cc(NS(=O)(=O)c2c(Cl)cc(C(F)(F)F)cc2Cl)ccc1Cl | -5.58% | -11.5% | 0.777% | -22.4% | -4.41%
CCn1cnnc1-c1nn(C)c2c1CN(C(=O)CCCc1nc3ccccc3s1)CC2 | -33.2% | -11% | -12% | -14.7% | -9.5%
COc1ccc2c(c1)c(CC(=O)O)c(C)n2Cc1ccc(Cl)cc1 | -32.7% | 2.23% | -5.38% | -9.8% | 2.94%
